Data published in patent US20040091853A1 (priority 2003, published 2004).

What was measured:
R8 HIV reporter particle = settings: read-out: IC50 (concentration of inhibitor needed to inhibit 50% of the signal); SupT1/CCR5 cells, blue fluorescence, 3 parameter logistic fit
[1] = system: R8.BaL HIV reporter particle; settings: read-out: IC50 (concentration of inhibitor needed to inhibit 50% of the signal); SupT1/CCR5 cells, blue fluorescence, 3 parameter logistic fit

enfuvirtide
IC50 (R8 HIV reporter particle): 91 nM
IC50 [1]: 26 nM
